Measured values taken from patent publication US11814447B2, “Peptide ligands for binding to EphA2” (BICYCLERD LIMITED, priority 2018, dated 2023).
Read-outs that look alike come from different tables or passages of the source.

Assays:
Human EphA2 [1] = target: T1, Human EphA2 (Homo sapiens, UniProt P29317); assay: Fluorescence polarisation competition binding assay
T1 construct: EphA2 (Ecto); polyHis (C)
Procedure: 1. Fluorescence Polarisation Measurements
(b) Competition Binding Assay
Peptides without a fluorescent tag were tested in competition with a peptide with a fluorescent tag and a known Kd (Table 2). Peptides were diluted to an appropriate concentration in assay buffer as described in the direct binding assay with a maximum of 5% DMSO, then serially diluted 1 in 2. […] Measurements were conducted as for the direct binding assay, however the gain was determined prior to the first measurement. Data analysis was in Systat Sigmaplot version 12.0 where the mP values were fit to a user defined cubic equation to generate a Ki value: f=y min+(y max−y min)/Lig*((Lig*((2*((Klig+Kcomp+Lig+Comp−Prot*c)^2−3*(Kcomp*(Lig−Prot*c)+Klig*(Comp−Prot*c)+Klig*Kcomp))^0.5*COS(ARCCOS((−2*(Klig+Kcomp+Lig+Comp−Prot*c)^3+9*(Klig+Kcomp+Lig+Comp−Prot*c)*(Kcomp*(Lig−Prot*c)+Klig*(Comp−Prot*c)+Klig*Kcomp)−27*(−1*Klig*Kcomp*Prot*c))/(2*(4(Klig+Kcomp+Lig+Comp−Prot*c)^2−3*(Kcomp*(Lig−Prot*c)+Klig*(Comp−Prot*c)+Klig*Kcomp))^3)^0.5)))/3))−(Klig+Kcomp+Lig+Comp−Prot*c)))/((3*Klig)+42*((Klig+Kcomp+Lig+Comp−Prot*c)^2−3*(Kcomp*(Lig−Prot*c)+Klig*(Comp−Prot*c)+Klig*Kcomp))^0.5*COS(ARCCOS((−2*(Klig+Kcomp+Lig+Comp−Prot*c)^3+9*(Klig+Kcomp+Lig+Comp−Prot*c)*(Kcomp*(Lig−Prot*c)+Klig*(Comp−Prot*c)+Klig*Kcomp)−27*(−1*Klig*Kcomp*Prot*c))/(2*(4(Klig+Kcomp+Lig+Comp−Prot*c)^2−3*(Kcomp*(Lig−Prot*c)+Klig*(Comp−Prot*c)+Klig*Kcomp))^3)^0.5)))/3))−(Klig+Kcomp+Lig+Comp−Prot*c)))).
“Lig”, “KLig” and “Prot” were all defined values relating to: fluorescent peptide concentration, the Kd of the fluorescent peptide and EphA2 concentration respectively.

Human EphA2 [2] = target: T1, Human EphA2; assay: Fluorescence polarisation direct binding assay; conditions: read-out: KD, nM ± 95% CI Human EphA2
[3] = read-out: Human EphA2 (Ki, nM ± 95% CI) Fluorescent Peptide Compound 66, Table 4, fluorescent peptide Compound 66
[4] = read-out: Ki, nM ± 95% CI Human EphA2 Fluorescent peptide Compound 66, Table 9, Ala scan peptides, fluorescent peptide Compound 66
[5] = read-out: Ki, nM ± 95% CI Human EphA2 Fluorescent Peptide Compound 66, Table 6, fluorescent peptide Compound 66
[6] = read-out: Human EphA2 (Ki, nM ± 95% CI) Fluorescent Peptide Compound 18, Table 4, fluorescent peptide Compound 18

T1 sequence (P29317 24-537 limits assumed): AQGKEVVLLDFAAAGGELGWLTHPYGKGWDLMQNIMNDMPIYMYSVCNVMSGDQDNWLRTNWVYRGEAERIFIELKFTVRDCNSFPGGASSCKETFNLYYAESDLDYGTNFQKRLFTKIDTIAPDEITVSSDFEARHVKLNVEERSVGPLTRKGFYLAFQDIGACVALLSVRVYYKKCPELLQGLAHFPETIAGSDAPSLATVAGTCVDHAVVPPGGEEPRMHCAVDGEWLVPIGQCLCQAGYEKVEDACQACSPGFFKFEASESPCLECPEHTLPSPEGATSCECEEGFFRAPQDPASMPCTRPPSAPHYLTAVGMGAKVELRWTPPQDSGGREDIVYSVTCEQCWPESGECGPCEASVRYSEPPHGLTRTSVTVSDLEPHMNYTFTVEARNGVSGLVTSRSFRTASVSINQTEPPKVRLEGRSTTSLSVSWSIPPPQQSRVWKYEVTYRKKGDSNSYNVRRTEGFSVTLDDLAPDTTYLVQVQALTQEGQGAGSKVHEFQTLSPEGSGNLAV

CSCC[C@@H]1NC(=O)[C@@H](NC(C)=O)CSCc2cc3cc(c2)CSC[C@H](NC(=O)[C@H](CC(C)C)NC(=O)[C@H](Cc2c[nH]c4ccccc24)NC(=O)[C@H](CC(=O)O)NC(=O)[C@H](CC(N)=O)NC1=O)C(=O)N[C@@H](CO)C(=O)N[C@@H](C)C(=O)NCC(=O)N[C@@H](Cc1c[nH]c2ccccc12)C(=O)N[C@@H]([C@@H](C)O)C(=O)N[C@H](C(N)=O)CSC3 [A27]
Ki (Human EphA2 [1]; [3]): 356 nM
Ki (Human EphA2 [1]; [4]): 356 nM

CSCC[C@@H]1NC(=O)[C@@H]2CCCN2C(=O)CNC(=O)[C@H](Cc2c[nH]c3ccccc23)NC(=O)[C@@H]2CCCN2C(=O)[C@@H](NC(=O)[C@H](C)NC(=O)CN(C)C(=O)CN(C)C(=O)CN(C)C(=O)CN(C)C(=O)CN(C)C(=O)CNC(=O)c2ccc3c(c2)C(=O)OC32c3ccc(O)cc3Oc3cc(O)ccc32)CSCc2cc3cc(c2)CSC[C@H](NC(=O)[C@H](Cc2c[nH]c4ccccc24)NC1=O)C(=O)N1CCC[C@H]1C(=O)N[C@@H](C(C)C)C(=O)N[C@@H](CC(N)=O)C(=O)N[C@@H](CCCNC(=N)N)C(=O)N1CCC[C@H]1C(=O)NCC(=O)N[C@H](C(=O)N[C@@H](C)C(N)=O)CSC3 [A15]
Kd (Human EphA2 [2]; Table 3, fluorescently tagged TBMB peptides): 12.6 ± 2.55 nM

CC(C)[C@@H]1NC(=O)[C@@H]2CCCN2C(=O)[C@@H]2CSCc3cc(cc(c3)CSC[C@H](NC(=O)[C@H](C)N)C(=O)N3CCC[C@H]3C(=O)N[C@@H](Cc3c[nH]c4ccccc34)C(=O)NCC(=O)N3CCC[C@H]3C(=O)N[C@@H](C)C(=O)N[C@@H](Cc3c[nH]c4ccccc34)C(=O)N2)CSC[C@@H](C(=O)N[C@@H](C)C(N)=O)NC(=O)CNC(=O)[C@@H]2CCCN2C(=O)[C@H](CCCNC(=N)N)NC(=O)[C@H](CC(N)=O)NC1=O [A44]
Ki (Human EphA2 [1]; read-out: Human EphA2 (Ki, nM ± 95% CI) Fluorescent Peptide Compound 1, Table 4, fluorescent peptide Compound 1): 164 nM
Ki (Human EphA2 [1]; read-out: Human EphA2 (Ki, nM ± 95% CI) Fluorescent Peptide Compound 12, Table 4, fluorescent peptide Compound 12): 128 ± 28.2 nM

CC(=O)N[C@H]1CSCc2cc3cc(c2)CSC[C@H](NC(=O)[C@H](CC(C)C)NC(=O)[C@H](Cc2c[nH]c4ccccc24)NC(=O)[C@H](CC(=O)O)NC(=O)[C@H](CC(N)=O)NC(=O)[C@H](C)NC1=O)C(=O)N[C@@H](CO)C(=O)N[C@@H](CC(C)C)C(=O)NCC(=O)N[C@@H](Cc1c[nH]c2ccccc12)C(=O)N[C@@H]([C@@H](C)O)C(=O)N[C@H](C(N)=O)CSC3 [A25]
Ki (Human EphA2 [1]; [3]): 328 nM
Ki (Human EphA2 [1]; [4]): 328 nM

CC(C)[C@@H]1NC(=O)[C@@H]2CCCN2C(=O)[C@@H]2CSCc3cc(cc(c3)CSC[C@H](NC(=O)[C@H](C)NC(=O)CN(C)C(=O)CN(C)C(=O)CN(C)C(=O)CN(C)C(=O)CN(C)C(=O)CNC(=O)c3ccc4c(c3)C(=O)OC43c4ccc(N)c(S(=O)(=O)O)c4Oc4c3ccc(N)c4S(=O)(=O)O)C(=O)N3CCC[C@H]3C(=O)N[C@@H](Cc3c[nH]c4ccccc34)C(=O)NCC(=O)N3CCC[C@H]3C(=O)N[C@@H](Cc3ccccc3)C(=O)N[C@@H](Cc3c[nH]c4ccccc34)C(=O)N2)CSC[C@@H](C(N)=O)NC(=O)CNC(=O)[C@@H]2CCCN2C(=O)[C@H](CCCNC(=N)N)NC(=O)[C@H](CC(N)=O)NC1=O [A67]
Kd (Human EphA2 [2]; Table 5): 15 ± 1.72 nM

CC[C@H](C)[C@@H]1NC(=O)CNC(=O)[C@H](CCC(N)=O)NC(=O)[C@@H]2CCCN2C(=O)[C@H](C(C)C)NC(=O)[C@@H](NC(=O)[C@H](C)N)CSCc2cc3cc(c2)CSC[C@@H](C(=O)N[C@@H](C)C(N)=O)NC(=O)[C@@H]2CCCN2C(=O)[C@H](CCC(=O)O)NC(=O)[C@H](Cc2ccc(O)cc2)NC(=O)[C@H](CCCNC(=N)N)NC(=O)[C@H](CC(C)C)NC(=O)[C@H](C)NC(=O)[C@H](CSC3)NC(=O)[C@H](Cc2c[nH]c3ccccc23)NC1=O [A65]
Ki (Human EphA2 [1]; [3]): 293 nM

CNCC(=O)N(C)CC(=O)N[C@@H](C)C(=O)N[C@H]1CSCc2cc3cc(c2)CSC[C@H](NC(=O)[C@H](Cc2c[nH]c4ccccc24)NC(=O)[C@H](Cc2ccccc2)NC(=O)[C@@H]2C[C@H](F)CN2C(=O)CNC(=O)[C@H](Cc2c[nH]c4ccccc24)NC(=O)[C@@H]2CCCN2C1=O)C(=O)N1CCC[C@H]1C(=O)N[C@@H](C(C)C)C(=O)N[C@@H](CC(N)=O)C(=O)N[C@@H](CCCNC(=N)N)C(=O)N1CCC[C@H]1C(=O)NCC(=O)N[C@H](C(N)=O)CSC3 [A81]
Ki (Human EphA2 [1]; [5]): 294 ± 99.6 nM

CC(=O)N(C)CC(=O)N(C)CC(=O)N[C@@H](C)C(=O)N[C@H]1CSCc2cc3cc(c2)CSC[C@H](NC(=O)[C@H](Cc2c[nH]c4ccccc24)NC(=O)[C@H](Cc2ccccc2)NC(=O)[C@@H]2CCCN2C(=O)CNC(=O)[C@H](Cc2c[nH]c4ccccc24)NC(=O)[C@@H]2CCCN2C1=O)C(=O)N1CCC[C@H]1C(=O)N[C@@H](C(C)C)C(=O)N[C@@H](CC(N)=O)C(=O)N[C@@H](CCCNC(=N)N)C(=O)N1CCC[C@H]1C(=O)NCC(=O)N[C@H](C(N)=O)CSC3 [A71]
Ki (Human EphA2 [1]; read-out: Ki, nM ± 95% CI Human EphA2 Fluorescent Peptide Compound 18, Table 6, fluorescent peptide Compound 18): 11.9 ± 7.51 nM

CC(C)[C@@H]1NC(=O)[C@@H]2CCCN2C(=O)[C@@H]2CSCc3cc(cc(c3)CSC[C@H](NC(=O)[C@H](C)NC(=O)CN(C)C(=O)CN(C)C(=O)CN(C)C(=O)CN(C)C(=O)CN(C)C(=O)CN(C)C(=O)CN(C)C(=O)CN(C)C(=O)CN(C)C(=O)CN(C)C(=O)CCN)C(=O)N3CCC[C@H]3C(=O)N[C@@H](Cc3c[nH]c4ccccc34)C(=O)NCC(=O)N3CCC[C@H]3C(=O)N[C@@H](Cc3ccccc3)C(=O)N[C@@H](Cc3c[nH]c4ccccc34)C(=O)N2)CSC[C@@H](C(N)=O)NC(=O)CNC(=O)[C@@H]2CCCN2C(=O)[C@H](CCCNC(=N)N)NC(=O)[C@H](CC(N)=O)NC1=O [A72]
Ki (Human EphA2 [1]; [5]): 21 ± 2.18 nM

CNCC(=O)N(C)CC(=O)N[C@@H](C)C(=O)N[C@H]1CSCc2cc3cc(c2)CSC[C@H](NC(=O)[C@H](Cc2c[nH]c4ccccc24)NC(=O)[C@H](Cc2ccccc2)NC(=O)[C@@H]2CCCN2C(=O)CNC(=O)[C@H](Cc2c[nH]c4ccccc24)NC(=O)[C@@H]2C[C@H](F)CN2C1=O)C(=O)N1CCC[C@H]1C(=O)N[C@@H](C(C)C)C(=O)N[C@@H](CC(N)=O)C(=O)N[C@@H](CCCNC(=N)N)C(=O)N1CCC[C@H]1C(=O)NCC(=O)N[C@H](C(N)=O)CSC3 [A75]
Ki (Human EphA2 [1]; [5]): 400 ± 90.6 nM

CSCC[C@@H]1NC(=O)[C@@H](NC(C)=O)CSCc2cc3cc(c2)CSC[C@H](NC(=O)[C@H](CC(C)C)NC(=O)[C@H](Cc2c[nH]c4ccccc24)NC(=O)[C@H](CC(=O)O)NC(=O)[C@H](CC(N)=O)NC1=O)C(=O)N[C@@H](C)C(=O)N[C@@H](CC(C)C)C(=O)NCC(=O)N[C@@H](Cc1c[nH]c2ccccc12)C(=O)N[C@@H]([C@@H](C)O)C(=O)N[C@H](C(N)=O)CSC3 [A26]
Ki (Human EphA2 [1]; [3]): 71.6 ± 3.33 nM
Ki (Human EphA2 [1]; [4]): 71.6 nM

CC(C)[C@@H]1NC(=O)[C@@H]2CCCN2C(=O)[C@@H]2CSCc3cc(cc(c3)CSC[C@H](NC(=O)[C@H](C)N)C(=O)N3CCC[C@H]3C(=O)N[C@@H](Cc3c[nH]c4ccccc34)C(=O)NCC(=O)N3CCC[C@H]3C(=O)N[C@@H](C)C(=O)N[C@@H](Cc3c[nH]c4ccccc34)C(=O)N2)CSC[C@@H](C(=O)N[C@@H](C)C(N)=O)NC(=O)CNC(=O)[C@H](CC(N)=O)NC(=O)[C@H](CCCNC(=N)N)NC(=O)[C@H](CC(N)=O)NC1=O [A52]
Ki (Human EphA2 [1]; [3]): 168 ± 72.5 nM

CC(C)[C@H](NC(=O)[C@H](CC(=O)O)NC(=O)[C@H](C)N)C(=O)N[C@@H](CCCNC(=N)N)C(=O)N[C@H](C(=O)N[C@H]1CSCc2cc3cc(c2)CSC[C@H](NC(=O)[C@H](Cc2c[nH]c4ccccc24)NC(=O)[C@H](Cc2ccccc2)NC(=O)[C@@H]2CCCN2C(=O)CNC(=O)[C@H](Cc2c[nH]c4ccccc24)NC(=O)[C@@H]2CCCN2C1=O)C(=O)N1CCC[C@H]1C(=O)N[C@@H](C(C)C)C(=O)N[C@@H](CC(N)=O)C(=O)N[C@@H](CCCNC(=N)N)C(=O)N1CCC[C@H]1C(=O)NCC(=O)N[C@H](C(=O)N[C@@H](C)C(N)=O)CSC3)[C@@H](C)O [A60]
Ki (Human EphA2 [1]; [6]): 12.6 ± 1.29 nM
Ki (Human EphA2 [1]; [3]): 2.5 nM

CC(C)[C@@H]1NC(=O)[C@@H]2CCCN2C(=O)[C@@H]2CSCc3cc(cc(c3)CSC[C@H](NC(=O)[C@H](C)NC(=O)[C@H](Cc3c[nH]cn3)NC(=O)[C@H](CC(=O)O)NC(=O)[C@H](C)N)C(=O)N3CCC[C@H]3C(=O)N[C@@H](Cc3c[nH]c4ccccc34)C(=O)NCC(=O)N3CCC[C@H]3C(=O)N[C@@H](Cc3ccccc3)C(=O)N[C@@H](Cc3c[nH]c4ccccc34)C(=O)N2)CSC[C@@H](C(=O)N[C@@H](C)C(N)=O)NC(=O)CNC(=O)[C@@H]2CCCN2C(=O)[C@H](CCCNC(=N)N)NC(=O)[C@H](CC(N)=O)NC1=O [A56]
Ki (Human EphA2 [1]; [6]): 14.4 ± 6.28 nM
